This is a selection; strong and weak results do not stand in their true shares. For some assays here: At the low end of the ranking the order means little. The list shows a part of the results. For some assays here: Construct or isoform of the protein are uncertain.
How the values were obtained:
Assay in all cases: universal protein binding microarray (PBM)
Conditions in all cases: transcription factors of Arabidopsis thaliana; high values mean tight binding; most listed sequences are background and not binding sites; double strand, one strand shown
GST-ANAC092(1-176) = target: T1, GST-ANAC092(1-176) (UniProt Q9FKA0)
T1 sequence: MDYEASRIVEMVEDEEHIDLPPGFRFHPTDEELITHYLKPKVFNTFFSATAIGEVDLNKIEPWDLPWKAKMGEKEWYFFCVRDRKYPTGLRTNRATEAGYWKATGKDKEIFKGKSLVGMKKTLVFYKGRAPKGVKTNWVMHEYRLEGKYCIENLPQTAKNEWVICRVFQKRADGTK

GST-NTL6(1-168) = GST-NTL6(1-168) (UniProt Q9SCK6)
GST-ANAC019 NAC domain = target: T2, GST-ANAC019 NAC domain (UniProt Q9C932)
T2 sequence: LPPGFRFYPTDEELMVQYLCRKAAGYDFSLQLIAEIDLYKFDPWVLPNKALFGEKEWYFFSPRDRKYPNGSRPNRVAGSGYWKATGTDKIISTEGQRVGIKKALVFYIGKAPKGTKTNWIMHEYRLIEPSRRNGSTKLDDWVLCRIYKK

GST-NAP(1-166) = target: T3, GST-NAP(1-166) (UniProt O49255)
T3 sequence: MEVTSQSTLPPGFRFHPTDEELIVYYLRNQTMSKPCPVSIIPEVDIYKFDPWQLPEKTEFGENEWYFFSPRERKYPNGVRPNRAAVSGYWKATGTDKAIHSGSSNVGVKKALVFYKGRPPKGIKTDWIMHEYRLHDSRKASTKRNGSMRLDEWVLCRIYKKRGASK

GST-NST2(1-184) = target: T4, GST-NST2(1-184) (UniProt Q9M274)
T4 sequence: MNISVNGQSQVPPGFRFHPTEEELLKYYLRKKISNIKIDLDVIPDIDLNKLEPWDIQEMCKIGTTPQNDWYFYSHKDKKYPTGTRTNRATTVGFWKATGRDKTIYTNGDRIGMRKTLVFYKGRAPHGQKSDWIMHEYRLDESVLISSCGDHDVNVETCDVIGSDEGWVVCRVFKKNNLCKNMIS

GST-NTL8 NAC domain = target: T5, GST-NTL8 NAC domain (UniProt Q9XIN7)
T5 sequence: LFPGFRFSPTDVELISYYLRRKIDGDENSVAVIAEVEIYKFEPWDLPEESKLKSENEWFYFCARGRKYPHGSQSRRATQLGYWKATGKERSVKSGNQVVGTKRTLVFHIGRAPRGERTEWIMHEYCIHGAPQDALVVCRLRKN

GST-SND1(1-203) = target: T6, GST-SND1(1-203) (UniProt Q9LPI7)
T6 sequence: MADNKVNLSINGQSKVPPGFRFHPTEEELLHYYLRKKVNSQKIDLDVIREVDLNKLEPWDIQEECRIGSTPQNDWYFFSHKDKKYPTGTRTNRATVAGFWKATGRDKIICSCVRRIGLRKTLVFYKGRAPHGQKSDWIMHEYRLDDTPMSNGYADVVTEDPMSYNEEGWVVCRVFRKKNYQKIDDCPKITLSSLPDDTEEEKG

GST-VND3 NAC domain = target: T7, GST-VND3 NAC domain (UniProt Q9FH59)
T7 sequence: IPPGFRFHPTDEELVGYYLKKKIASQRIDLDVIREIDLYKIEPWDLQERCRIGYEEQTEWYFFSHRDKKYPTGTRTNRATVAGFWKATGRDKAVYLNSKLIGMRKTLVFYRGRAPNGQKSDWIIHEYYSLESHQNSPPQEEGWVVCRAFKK

GST-VND7 NAC domain = target: T8, GST-VND7 NAC domain (UniProt Q9C8W9)
T8 sequence: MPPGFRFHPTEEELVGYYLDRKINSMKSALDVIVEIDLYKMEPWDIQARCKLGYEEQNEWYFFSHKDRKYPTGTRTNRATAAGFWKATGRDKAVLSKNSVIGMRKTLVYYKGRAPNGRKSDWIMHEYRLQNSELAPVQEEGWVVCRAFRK

[1] = target: T9, GST-VOZ2 (Arabidopsis thaliana) (UniProt Q9SLB9)
T9 sequence: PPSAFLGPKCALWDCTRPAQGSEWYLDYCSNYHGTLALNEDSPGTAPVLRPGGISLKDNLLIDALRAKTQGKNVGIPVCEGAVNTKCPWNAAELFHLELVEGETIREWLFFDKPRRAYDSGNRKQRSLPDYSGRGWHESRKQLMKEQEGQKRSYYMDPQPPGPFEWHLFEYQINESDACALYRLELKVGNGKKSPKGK

[2] = target: T10, GST-ANAC092(1-285) full length (UniProt Q9FKA0)
T10 sequence: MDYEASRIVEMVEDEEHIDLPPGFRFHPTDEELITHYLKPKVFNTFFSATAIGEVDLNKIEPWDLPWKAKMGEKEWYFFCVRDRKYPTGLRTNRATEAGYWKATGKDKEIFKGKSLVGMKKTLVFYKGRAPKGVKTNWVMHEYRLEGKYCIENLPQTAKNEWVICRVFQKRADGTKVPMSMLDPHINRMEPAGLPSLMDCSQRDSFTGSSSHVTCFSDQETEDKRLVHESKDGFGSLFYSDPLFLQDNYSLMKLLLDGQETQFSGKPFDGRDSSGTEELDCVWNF

GST-ANAC055(1-171) = target: T11, GST-ANAC055(1-171) (UniProt Q9LDY8)
T11 sequence: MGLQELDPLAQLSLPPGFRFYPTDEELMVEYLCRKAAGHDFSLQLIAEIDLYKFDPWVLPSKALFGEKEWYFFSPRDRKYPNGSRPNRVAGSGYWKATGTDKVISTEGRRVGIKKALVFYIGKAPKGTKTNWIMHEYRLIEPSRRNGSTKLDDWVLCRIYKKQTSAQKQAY

GST-ATAF1 NAC domain = target: T12, GST-ATAF1 NAC domain (UniProt Q39013)
T12 sequence: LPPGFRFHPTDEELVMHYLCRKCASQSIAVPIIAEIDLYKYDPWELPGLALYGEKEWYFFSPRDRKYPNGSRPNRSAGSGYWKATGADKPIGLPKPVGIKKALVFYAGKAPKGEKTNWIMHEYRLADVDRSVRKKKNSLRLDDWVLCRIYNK

GST-WRKY1(266-371) = GST-WRKY1(266-371) (UniProt Q9SI37)

Sequence	binding signal (GST-ANAC092(1-176)) [E-score]	binding signal (GST-NTL6(1-168)) [E-score]	binding signal (GST-ANAC019 NAC domain) [E-score]	binding signal (GST-NAP(1-166)) [E-score]	binding signal (GST-NST2(1-184)) [E-score]	binding signal (GST-NTL8 NAC domain) [E-score]	binding signal (GST-SND1(1-203)) [E-score]	binding signal (GST-VND3 NAC domain) [E-score]	binding signal (GST-VND7 NAC domain) [E-score]	binding signal [1] [E-score]	binding signal [2] [E-score]	binding signal (GST-ANAC055(1-171)) [E-score]	binding signal (GST-ATAF1 NAC domain) [E-score]	binding signal (GST-WRKY1(266-371)) [E-score]
GACTTGAC	-0.056	0.0331	-0.0379	-0.015	0.0163	0.0707	0.0161	0.0396	0.00069	0.0802				
AAAGTCAA	0.0335	0.0854	0.0139	-0.0688		-0.0139	0.118	0.0095	-0.0243	0.0357	0.017			
CGAAGTCA	-0.0552		0.0496	-0.0384	-0.0124		0.0225	-0.188	-0.0145	-0.0881	-0.086	-0.149	-0.06	
GTTGACCA		-0.0983	0.0144	-0.00293	-0.0132	-0.0933	-0.119	0.0191	-0.0105	0.0502	-0.005	0.0101	0.0254	
AGCTTGAC		-0.0527		0.0572	-0.0625	0.0279	-0.0184	-0.00553		-0.193		-0.0714	-0.1	
AAAGGTCA		0.0429	-0.0273	-0.171	0.0387	0.154	-0.00997	0.0202	-0.0014	0.0101		0.106		
TGAAGCAA		0.389		-0.0591			0.447	0.0492		0.0529		0.0399	0.0385	-0.0695
CTAGTCAA	0.0129	-0.0941	0.0699	-0.0462	0.026	0.0822	-0.00705	0.166		-0.058			0.148	0.474
GTCAAATA	-0.0279		-0.0586		-0.0507	-0.204	-0.0022	0.0795		0.0597	0.0439		0.141	0.461
AGGTCAAA	-0.00598	0.0901	-0.0413	-0.0535	-0.00307	-0.000155	-0.0327	0.062		0.0405	-0.0869			
CCACGGAA		0.117	0.427			0.107	0.0354	0.343		-0.0953				0.0233
AGTCAAAG	-0.0305	0.0118	0.0319	-0.1	-0.0795	0.0881	0.0189	-0.0433		-0.0144	-0.0713	0.0286	0.0213	0.486
AGGTCAGC	-0.0713	0.0243	0.00933	-0.0481	-0.0962	0.0375	-0.0926	-0.0376		-0.0806	-0.171	-0.127	-0.00783	
CAAGCAAG	0.369			0.0324			0.395	0.0934		0.05		0.0997		-0.0203
